The record followed here is patent US20220025032A1 (Novartis, published 2022).

Assay [1] addresses T1, Human BTC (human, UniProt P35070 32-111).
T1 construct: Soluble human BTC of the Biacore, ELISA, MSD and cell assays; also called human betacellulin; soluble human BTC
T1 sequence: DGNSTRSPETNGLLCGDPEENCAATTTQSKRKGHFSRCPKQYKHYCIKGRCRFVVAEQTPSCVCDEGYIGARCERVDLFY
Kind of assay: SPR Biacore T200, anti-Fab capture, antigen as analyte.

For assay [2], the target named is T2, Human VEGF165 (human, UniProt P15692 27-191).
T2 construct: mature; biotinylated in the VEGFR2 ELISAs; also called human VEGF-A; VEGF-A
T2 sequence (looked up): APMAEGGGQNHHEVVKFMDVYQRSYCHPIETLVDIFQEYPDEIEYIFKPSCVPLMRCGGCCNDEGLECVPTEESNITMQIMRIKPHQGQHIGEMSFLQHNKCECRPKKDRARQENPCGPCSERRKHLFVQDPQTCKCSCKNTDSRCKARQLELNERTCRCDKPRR
Kind of assay: SPR, NVS11 captured on the chip, average of 5 experiments. As to the method: (§1) First, surface plasmon resonance used for affinity measurements of BTC or VEGF binding to NVS11 was captured on the chip.
(§2) The average values for human VEGF are calculated from 5 individual experiments. The average values for human and cyno BTC are calculated from 7 individual experiments.
On the technique in general: Surface plasmon resonance follows binding to a sensor surface in real time, without labels.

Assay [3] deals with T1, Human BTC. Nature of the assay: SPR, NVS11 captured on the chip, average of 7 experiments. As to the method: as §1, §2
In another assay the target is T3, Cyno BTC (cynomolgus, UniProt A0A2K5X5E5 32-111).
T3 construct: also called cynomolgus BTC
T3 sequence: T1 sequence with E19D, A56T
Described as above. As to the method: as §1, §2

Assay [4] deals with T4, membrane-bound human BTC on 293F-hBTC cells (human, UniProt P35070 32-111).
T4 construct: the transfected construct is not described; also called membrane-anchored BTC
T4 sequence: T1 sequence
Nature of the assay: flow cytometry on 293F cells over-expressing membrane-bound BTC. As to the method: (§3) After washing the cells, the cells were dissociated using Versene at 37° C. The cells were washed with FACS buffer and plated at 100 μl in a 96 well plate using cells at 1×10⁶ cells/ml. Then 100 μl of a serial dilution of antibodies starting at 50 nM was used. The cells were incubated, washed and then treated with the secondary anti-human Fab-FITC antibody. The antibodies only bound to the cells expressing BTC. After which the cells were washed and analyzed on the Attune Flow Cytometry. All data analysis was carried out using Flow Jo software.
(§4) In FIG. 6A, Flow cytometry was used to assess the binding of NVS11 to membrane-bound BTC using an anti-human Fab antibody for detection.
(In general: In flow cytometry, cells or beads pass a laser one at a time.)

Assay [5] deals with T2, Human VEGF165. Nature of the assay: competition ELISA, biotinylated human VEGF binding to coated VEGFR2-Fc. As for the experimental part: (§5) NVS11 neutralization of VEGF was determined by ELISA. Various concentrations of NVS11 was pre-incubated with biotinylated human VEGF and added to VEGFR2-Fc coated plates.
Background: An ELISA detects its analyte on a solid surface through an enzyme-linked reagent.

The target of assay [6] is T1, Human BTC. Nature of the assay: inhibition of BTC binding to ErbB1; y axis MSD units, x axis Fab (pM); blocked partner ErbB1.
In assay [7] the target is T1, Human BTC. Nature of the assay: inhibition of BTC binding to ErbB4; y axis MSD units, x axis Antibody concentration (pM); blocked partner ErbB4.
The target in assay [8] is T2, Human VEGF165. Nature of the assay: competition ELISA: antibody pre-incubated with 400 pM VEGF-biotin, added to coated VEGFR2, streptavidin-HRP detection; y axis OD. As to the method: The plates were then washed 3 times using 1λTBST. The plates were blocked in 2% BSA diluent (0.1% Tween 20/0.1% TirtonX100) overnight. After blocking, the plates were washed 3 times using TB ST and then the sample mixture was added at 20 μl/well. The sample mixture consisted a final fixed concentration of VEGF-biotin (in-house) at 400 pM and a 15 point 1:2 serial dilution of the antibody starting at 20 nM. The sample mixture was pre-incubated for 1 hour prior to adding to the plate and then incubated for another hour at room temperature on the plate. Afterwards, the plate was washed 3 times using TBST and 20 μl/well of Streptavidin-HRP diluted at 1:5000 was added for an incubation time of 1 hour. The plates were washed 3 times in TBST and then 20 μl/well of TMB substrate was added. TMB is a chromogen that yields a blue color when oxidized. TMB was incubated for 10 minutes until the signal saturated in the no antibody samples, and then 10 μl/well of 2N sulfuric acid was added which then changes the blue color to yellow and this now has a maximum absorbance at 450 nm.

Assay [9] deals with T4, membrane-bound human BTC on 293F-hBTC …. Nature of the assay: flow cytometry on 293F cells with membrane-bound human BTC, anti-human Fab detection; y axis Percent Positive Binding, x axis Antibody concentration (nM). As for the experimental part:
as §3, §4

For assay [10], the target named is T2, Human VEGF165. Nature of the assay: competition ELISA: antibody pre-incubated with biotinylated human VEGF, added to coated human VEGFR2-Fc, streptavidin-HRP detection; blocked partner VEGFR2-Fc. As to the method:
as §5

Assay [11] addresses T5, Human BTC-avitag-biotin (human, UniProt P35070 32-111, biotin on the avitag).
T5 construct: also called biotin-BTC; soluble human BTC-avitag-biotin
T5 sequence: T1 sequence
Kind of assay: flow cytometry, BTC-ErbB1 Cell Binding Inhibition: antibody pre-incubated with 15 nM human BTC-avitag-biotin, HKB11 cells over-expressing human ErbB1; y axis Percent Inhibition. As to the method:
(§6) HKB11 over-expressing either ErbB1 or ErbB4 cells were plated 1×10⁵ cells/well. Cells were washed once with FACS buffer by spun down at 1200 rpm for 5 minutes and supernatant removed. Next, the Fab sample dilutions and BTC were prepared in FACS buffer. Human BTC-avitag-biotin was diluted to a fixed concentration of 15 nM. The test Fab samples were prepared at a starting concentration of 40 nM and titrated for 9 points at a serial dilution of 1:2. Both biotin-BTC and the test Fab samples are incubated for 30 minutes at room temperature. The pre-incubated samples were then added to the cell plate at 100 μl per well in duplicate and incubated for 1 hour on ice. The plate was then washed once in FACS buffer and spun down at 1200 rpm for 5 minutes and supernatant removed. […]
(§7) Measurements were performed on Attune Flow Cytometry machine. Data were analysed using the Flow Jo software. The live cell populations analysed were gated in forward and side scattering (FSC-A/SSC-A dot plot). The interval gate was established on the control histogram, which was obtained with sample incubated in streptavidin-Alexa Fluor488 only, and subsequently, determined percent of positive binding events of cells carrying membrane-bound receptor ErbB1 or ErbB4 and biotin-BTC. The median of fluorescence intensity (MFI) value was also derived for the live cell population. […]

Assay [12] concerns the target T5, Human BTC-avitag-biotin. Kind of assay: flow cytometry, BTC-ErbB4 Cell Binding Inhibition: antibody pre-incubated with 15 nM human BTC-avitag-biotin, HKB11 cells over-expressing human ErbB4; y axis Percent Inhibition. As to the method: as §6, §7

Numbering of substitutions follows the chain as printed. “And” between values parts separate entries of the source, which are not always exact repeats. Equal values may be shown once.

As a reminder, the Kd is the equilibrium constant for the complex coming apart. The koff is a measure of how fast the partners let go of each other. The kon is a measure of how fast the partners come together. Higher therefore signals fast association. The EC50 is the concentration needed to bring the measured effect to its halfway point. Read a low EC50 as a more potent agent. By IC50 is commonly meant the concentration needed to halve the response being measured.

B1: NVS11 (bispecific antibody)
heavy: QVQLVQSGAEVKKPGSSVKVSCKASGGTFSSYAISWVRQAPGQGLEWMGGIVPWMGEAVYAQKFQGRVTITADESTSTAYMELSSLRSEDTAVYYCARSSSTYGIHAFDYWGQGTLVTVSSASTKGPSVFPLAPSSKSTSGGTAALGCLVKDYFPEPVTVSWNSGALTSGVHTFPAVLQSSGLYSLSSVVTVPSSSLGTQTYICNVNHKPSNTKVDKRVEPKSCGSGGGGSGGGGSGGGEVQLVESGGGLVQPGGSLRLSCTASGFSLTDYYYMTWVRQAPGKGLEWVGFIDPDDDPYYATWAKGRFTISRDNSKNTLYLQMNSLRAEDTAVYYCAGGDHNSGWGLDIWGQGTLVTVSSASTKGPSVFPLAPSSKSTSGGTAALGCLVKDYFPEPVTVSWNSGALTSGVHTFPAVLQSSGLYSLSSVVTVPSSSLGTQTYICNVNHKPSNTKVDKRVEPKSC
light: DIQMTQSPSSLSASVGDRVTITCRASQSISNFLNWYQQKPGKAPKLLIYAASNLQSGVPSRFSGSGSGTDFTLTISSLQPEDFATYYCQQYDDFPMTFGQGTKVEIKRTVAAPSVFIFPPSDEQLKSGTASVVCLLNNFYPREAKVQWKVDNALQSGNSQESVTEQDSKDSTYSLSSTLTLSKADYEKHKVYACEVTHQGLSSPVTKSFNRGECGSGGGGSGGGGSGGGEIVMTQSPSTLSASVGDRVIITCQASEIIHSWLAWYQQKPGKAPKLLIYLASTLASGVPSRFSGSGSGAEFTLTISSLQPDDFATYYCQNVYLASTNGANFGQGTKLTVLKRTVAAPSVFIFPPSDEQLKSGTASVVCLLNNFYPREAKVQWKVDNALQSGNSQESVTEQDSKDSTYSLSSTLTLSKADYEKHKVYACEVTHQGLSSPVTKSFNRGEC
notes: Fab-Fab: NVS1 Fab at the N-terminus, (GSGGG)3 linker, NVS8 Fab at the C-terminus; also called anti-BTC/anti-VEGF bispecific Fab; bispecific Fab-Fab
Take B1: the Kd came to 1.8 pM with Human BTC [1], 0.0186 nM with Human VEGF165 [2], 5.8 pM in the assay with Human BTC [3] and 7.2 pM with Cyno BTC. Moreover, the koff with Human VEGF165 [2] amounted to 2.4e-05 s⁻¹; in the assay with Human BTC [3], 3e-05 s⁻¹; with Cyno BTC, 3e-05 s⁻¹. The kon came out at 1.3e+06 M⁻¹ s⁻¹ in the assay with Human VEGF165 [2], 5.1e+06 M⁻¹ s⁻¹ with Human BTC [3] and 4.2e+06 M⁻¹ s⁻¹ in the assay with Cyno BTC. Further, the EC50 in assay [4] was 0.093 nM and 0.009 µg/mL; in [9], 0.08 nM. Moreover, the IC50 in the assay with Human VEGF165 [5] was 1.3 nM and 0.127 µg/mL; with Human BTC [6] it was 0.258 nM; with Human BTC [7], 0.556 nM; in the assay with Human VEGF165 [8], 1.09 nM; in the assay with Human VEGF165 [10] it was 1.09 nM; with Human BTC-avitag-biotin [11] it was 2.6 nM. The IC50 with Human BTC-avitag-biotin [12] was determined as 7.6 nM.
